The results in this text go back to publication PMC4336329 (PLoS ONE, 2015).

SMILES strings stand for the structures. In all, about 310,000 compounds went through this assay and about 2,200 (0.71%) showed an effect of 50% or more. Effects have a minus sign here. The list shows a part of the results.

Chain of human ether-à-go-go-related gene (hERG) potassium channel (Q12809 whole entry, looked up): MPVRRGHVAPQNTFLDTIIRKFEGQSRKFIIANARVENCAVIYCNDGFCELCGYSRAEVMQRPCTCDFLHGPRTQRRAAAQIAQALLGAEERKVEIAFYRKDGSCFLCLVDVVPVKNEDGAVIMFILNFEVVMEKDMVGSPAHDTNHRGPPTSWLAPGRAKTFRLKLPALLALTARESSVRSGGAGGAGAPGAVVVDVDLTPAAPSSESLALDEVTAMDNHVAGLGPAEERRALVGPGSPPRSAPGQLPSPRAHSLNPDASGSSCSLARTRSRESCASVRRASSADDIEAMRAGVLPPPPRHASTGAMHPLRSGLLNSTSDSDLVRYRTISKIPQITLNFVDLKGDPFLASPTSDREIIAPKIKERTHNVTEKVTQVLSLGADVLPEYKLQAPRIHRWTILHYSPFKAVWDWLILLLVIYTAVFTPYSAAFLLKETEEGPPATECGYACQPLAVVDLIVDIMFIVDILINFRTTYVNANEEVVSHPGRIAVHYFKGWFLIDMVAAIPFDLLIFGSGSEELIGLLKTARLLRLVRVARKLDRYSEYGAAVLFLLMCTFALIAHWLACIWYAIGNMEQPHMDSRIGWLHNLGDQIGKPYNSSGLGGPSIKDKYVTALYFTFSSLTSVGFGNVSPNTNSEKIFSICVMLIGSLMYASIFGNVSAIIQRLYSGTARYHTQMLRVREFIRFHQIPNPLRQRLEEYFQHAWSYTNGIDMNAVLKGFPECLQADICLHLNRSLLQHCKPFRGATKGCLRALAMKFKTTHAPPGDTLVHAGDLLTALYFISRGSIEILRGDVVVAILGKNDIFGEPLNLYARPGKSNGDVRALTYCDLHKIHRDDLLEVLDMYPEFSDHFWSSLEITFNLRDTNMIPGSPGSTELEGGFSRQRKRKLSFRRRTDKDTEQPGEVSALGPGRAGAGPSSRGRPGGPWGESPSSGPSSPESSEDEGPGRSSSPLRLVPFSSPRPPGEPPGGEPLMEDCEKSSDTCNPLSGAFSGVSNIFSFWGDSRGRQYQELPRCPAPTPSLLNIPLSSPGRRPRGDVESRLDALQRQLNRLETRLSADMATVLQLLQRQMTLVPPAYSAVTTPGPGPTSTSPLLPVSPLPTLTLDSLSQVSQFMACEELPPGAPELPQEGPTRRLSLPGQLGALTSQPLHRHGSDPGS

This assay addresses human ether-à-go-go-related gene (hERG) potassium channel (human, UniProt Q12809). Nature of the assay: primary screen, population patch clamp on CHO cells stably expressing hERG.
For the molecule `CC(NC(=O)c1cccc(F)c1)C(c1cccs1)N1CCN(C)CC1` (centres unmarked), the “hERG current change (%, negative = inhibition) at 1uM” value was 11.8%.
With `CCOC(=O)CSc1nnc(COc2cccc(C)c2)o1`, the “hERG current change (%, negative = inhibition) at 1uM” value stood at 10.6%.
In the case of `Nc1ccc(C(=O)N/N=C\C=C\c2cccc([N+](=O)[O-])c2)cc1` it was 9.17%.
In the case of `Cc1nc([N+](=O)[O-])c(C(=O)OCc2ccccc2Br)n1C` it was 1.8%; in that of `CN(C)c1ccc(C(=S)N2CCNCC2)cc1`, 12.8%.
In the case of `Cc1ccc(C(=O)C2=C(O)C(=O)N(Cc3ccccc3)C2c2cccnc2)o1` (centres unmarked) it was 10.2%; in that of `O=C(Nc1ccc2c(c1)CCC2)Nc1ccccc1Cl`, 15.6%; in that of `CSCC[C@H](NC(=O)N1CCn2c1nc1ccccc12)C(=O)NC1CC1`, 12.7%.
For `CCOC(=O)N1CCC(NC(=O)Cn2nc(Cc3ccncc3)c3ccccc3c2=O)CC1`, the “hERG current change (%, negative = inhibition) at 1uM” value came out at 17.4%.
In the case of `COCc1nc2ccccc2n1Cc1ccc(Br)cc1` it was 3.34%; in that of `COc1ccccc1OCCCc1c(C)n[nH]c1C`, 1.99%.
In the case of `COC(=O)c1cc(OC)c(OC)cc1NC(=O)CCC1CCCC1` it was 11.9%; in that of `COC(=O)C1=C(N)OC2=C(C(=O)CCC2)C1c1cccnc1` (centres unmarked), 6.75%; in that of `CC(=O)Nc1cc(-c2nn(CC(=O)N3CCCCC3)c(=O)c3ccccc23)ccc1N1CCOCC1`, 6.3%.
As to `O=C(N/N=C/c1cc(Br)ccc1O)Nc1ccccc1`, the “hERG current change (%, negative = inhibition) at 1uM” value amounted to 18.7%.
For `Cc1ccc([N+](=O)[O-])cc1S(=O)(=O)NCCc1c(C)[nH]c2c(C)cccc12`, the “hERG current change (%, negative = inhibition) at 1uM” value stood at 8.49%.
In the case of `Cc1ncc([N+](=O)[O-])n1CC(=O)Nc1ccc(OC(F)(F)Cl)cc1` it was 19.9%; in that of `CC(=O)N(Cc1ccc(F)cc1)c1cccc(C)c1C`, 13%; in that of `CCCOc1ccc(C(=O)NCC(c2ccco2)N(C)C)cc1` (centres unmarked), -3.89%.
For the molecule `CCOc1cc(CNCc2ccncc2)cc(Br)c1OCc1ccc(F)cc1.Cl`, the “hERG current change (%, negative = inhibition) at 1uM” value was found to be 4.11%.
For the molecule `CSc1nc(-c2ccccc2)nc(N2CCCC2)c1C(C)=O`, the “hERG current change (%, negative = inhibition) at 1uM” value is recorded as -4.89%.
On to `CCOC(=O)c1c(C)[nH]c(C(=O)CSc2nccc(C)n2)c1C`, for which the “hERG current change (%, negative = inhibition) at 1uM” value is 17.7%.
Turning to `O=C(CN1CC[n+]2c(-c3ccccc3)csc21)c1ccc(Br)cc1.[Br-]`, the “hERG current change (%, negative = inhibition) at 1uM” value was found to be 5.16%.
Take `CCCCN1C(=O)c2ccccc2C1C(=O)NC1CCCC1` (centres unmarked): the “hERG current change (%, negative = inhibition) at 1uM” value turned out to be 8.85%.
In the case of `CNC(=O)NC(=O)CSc1nc2cc(C(=O)OC)ccc2c(=O)n1-c1ccccc1` it was 6.33%.
In the case of `O=C(NNS(=O)(=O)c1ccc(Br)cc1)c1sccc1-n1cccc1` it was 13.8%.
In the case of `O=C(NNS(=O)(=O)c1ccc2ccccc2c1)c1cc(-c2ccccn2)nc2ccccc12` it was 15.8%; in that of `O=C(Nc1nnc(C2CCCCC2)s1)c1ccc(Br)s1`, -5.3%.
As for `CCNC(=O)COc1cc(C)c(Br)c(C)c1`, the “hERG current change (%, negative = inhibition) at 1uM” value turned out to be 9.75%.
In the case of `CCC1(CC)Cc2ccccc2-c2nc(CN(C)C)[nH]c(=O)c21` it was 15.8%; in that of `CC(NC(=O)/C(C#N)=C/c1cn[nH]c1-c1ccccc1)c1ccccc1` (centres unmarked), 9.07%.
For the molecule `CN(C)/C=C(\C#N)C(=O)Nc1ccc(O)cc1F`, the “hERG current change (%, negative = inhibition) at 1uM” value was determined as 9.47%.
In the case of `COc1ccc(-c2csc(N(CCCN(C)C)C(=O)c3ccccc3C)n2)cc1.Cl` it was -2.13%; in that of `O=C(CSc1nc(-c2ccccc2)cs1)NC(=O)NCc1ccco1`, 7.04%; in that of `CCC(CC)C(=O)c1c[nH]c(C(=O)NCc2ccc(F)cc2)c1`, 5.71%.
In the case of `COc1ccc2ccc(O)c(CN(C)CC(=O)Nc3ccccc3C(F)(F)F)c2c1` it was 6.43%; in that of `O=C1C=C(Nc2ccc(Cl)cc2)CC(c2ccc(Cl)cc2)C1` (centres unmarked), 10.8%.
Consider `O=c1[nH]nc(CNc2ccc(C(F)(F)F)cc2)c2ccccc12`, for which the “hERG current change (%, negative = inhibition) at 1uM” value was found to be 1.87%.
In the case of `Cc1nn(CC(=O)NCCN2CCCCCC2)c(=O)c2nn(-c3ccccc3)c(C)c12` it was 10.3%; in that of `C[C@H]1CN=C(Nc2ccccc2)N1CC1CCC1`, 5.63%; in that of `COc1ccc(C(=O)NCCc2nnc3ccc(SCC(=O)N4CCOCC4)nn23)cc1`, 7.86%.
Turning to `COc1cc(NC(=O)CCn2c(=S)oc3ccccc32)cc(OC)c1OC`, the “hERG current change (%, negative = inhibition) at 1uM” value was -1.54%.
Turning to `CCCCN(C(C)=O)c1c(N)n(CCC)c(=O)n(CC(=O)Nc2cc(Cl)cc(Cl)c2)c1=O`, the “hERG current change (%, negative = inhibition) at 1uM” value is listed as 13.3%.
In the case of `CCCCNC(=O)CN1C(=O)C(CC)Oc2ccc(Cl)cc21` (centres unmarked) it was 6.11%; in that of `CC1CCc2sc3ncnc(N4CCOCC4)c3c2C1` (centres unmarked), -2.2%.
For `CCOC(=O)CSc1cc(-c2ccccc2)nc2ncnn12`, the “hERG current change (%, negative = inhibition) at 1uM” value stood at 6.11%.
Consider `O=C(CCSc1ccc(F)cc1)Nc1ccc(-n2cnnn2)cc1`, for which the “hERG current change (%, negative = inhibition) at 1uM” value was determined as 10.3%.
In the case of `Cn1c(=O)c2c(nc3n2CC(COc2ccc(Cl)cc2)O3)n(C)c1=O` (centres unmarked) it was 14.6%.
Turning to `CC(Oc1ccccc1F)C(=O)NC1CCS(=O)(=O)C1` (centres unmarked), the “hERG current change (%, negative = inhibition) at 1uM” value was determined as 12.4%.
For `COc1ccccc1C(=O)NC(=S)Nc1cc(C(=O)O)ccc1C`, the “hERG current change (%, negative = inhibition) at 1uM” value was 12.2%.
On to `Cc1nc(C)c(N)c(=O)[nH]1.Cl`, for which the “hERG current change (%, negative = inhibition) at 1uM” value is 13.2%.
In the case of `Cc1cc(C(F)(F)F)nn1CC(=O)NCc1ccco1` it was 6.61%; in that of `COc1ccccc1NC(=S)Nc1ccccc1F`, 8.75%; in that of `CCCOc1ccc(OCCN2CCCC(C)C2)cc1.O=C(O)C(=O)O` (centres unmarked), 0.638%.
Take `COc1cccc(C(c2nnnn2Cc2ccco2)N2CCN(Cc3ccccc3)CC2)c1OC.Cl` (centres unmarked): the “hERG current change (%, negative = inhibition) at 1uM” value is -0.106%.
As for `Cc1ccc(C(=O)COc2ccccc2-c2ccccc2)cc1`, the “hERG current change (%, negative = inhibition) at 1uM” value stood at 9.48%.
With `O=C(CSc1nnc(-c2cccnc2)n1-c1ccc(F)cc1)NCc1ccc2c(c1)OCO2`, the “hERG current change (%, negative = inhibition) at 1uM” value is on record as -54.5%.
In the case of `COc1ccc(-n2sc3c(c2=S)-c2cc(OC)ccc2NC3(C)C)cc1` it was 4.31%; in that of `O=C(c1cccs1)N(Cc1ccco1)Cc1cc2ccccc2[nH]c1=O`, -2.69%.
Regarding `Nc1nc(NCCCN2CCOCC2)nc(Nc2ccc(F)cc2)c1[N+](=O)[O-]`, the “hERG current change (%, negative = inhibition) at 1uM” value is given as -13.9%.
In the case of `COc1ccccc1CN(CC(=O)NCc1ccc2c(c1)OCO2)C(=O)c1csnn1` it was -0.0171%.
In the case of `O=C(O)c1ccc(CSC2CCCCC2)cc1` it was 16.4%; in that of `Cc1ccc(C(=O)Nc2cccc3cccnc23)cc1Br`, 7.95%; in that of `COc1ccccc1N1CCNC(C)C1=O.Cl` (centres unmarked), 15.4%.
In the case of `Cn1c(C2CC(=O)N(Cc3ccccc3)C2)nc2ccccc21` (centres unmarked) it was 12.4%.
As for `CC(=C/c1ccc(C(C)C)cc1)/C=N/NC(=O)c1ccncc1`, the “hERG current change (%, negative = inhibition) at 1uM” value amounted to 12.1%.
For the molecule `CCn1c(SCC(=O)Nc2cccc(NC(=O)c3ccco3)c2)nnc1-c1cccs1`, the “hERG current change (%, negative = inhibition) at 1uM” value was -12.4%.
`CC(C)CCN(CCC(C)C)CC(O)Cn1c2ccccc2c(=O)c2ccccc21` (centres unmarked): the “hERG current change (%, negative = inhibition) at 1uM” value is 10.7%.
In the case of `Cc1noc(C)c1C(=O)NCCc1ccccc1` it was 1.22%; in that of `Cc1ccc(NC(=O)c2c(NC(=O)CCC(=O)O)sc3c2CCCCC3)cc1`, 3.98%.
In the case of `Cc1n[nH]c(=O)nc1NCc1ccco1` it was 14.5%; in that of `Cc1ccc(-n2[nH]c(C)c(C=NCc3ccncc3)c2=O)cc1`, -27.7%.
In the case of `CCN(CC)CCNS(=O)(=O)c1ccc(C(=O)NN)cc1` it was 4.77%; in that of `O=C(CCCc1ccccc1)Nc1nncs1`, 14.3%; in that of `O=C(NCc1ccco1)c1ccc(Cl)c(S(=O)(=O)Nc2ccccc2)c1`, 30.4%.
With `CC1=C(C(=O)OCc2ccccc2)C(c2ccc([N+](=O)[O-])cc2)NC(=O)N1C` (centres unmarked), the “hERG current change (%, negative = inhibition) at 1uM” value is on record as -10.8%.
In the case of `CCOc1cc(C(=O)Nc2cc(C)ccn2)cc(OCC)c1OCC` it was -4.75%; in that of `COc1ccc(S(=O)(=O)NC(C)C(=O)NCc2ccco2)cc1OC` (centres unmarked), 10.2%; in that of `Cc1ccccc1C(=O)Nc1nc(SCc2ccc(Cl)cc2)n[nH]1`, 1.95%.
In the case of `CCOC(=O)c1c(OCC)[nH]c2c1cc(O)c1ccccc12` it was 13.8%; in that of `COC(=O)Cn1c(C)nc2ccccc21`, 7.8%; in that of `COc1ccc(NC(=O)CSc2nnc(CNC(=O)COc3ccc(Cl)cc3)o2)cc1`, 13.6%.
In the case of `O=C(NNC1CC(=O)N(c2ccc(Cl)cc2)C1=O)c1ccco1` (centres unmarked) it was 15.8%.
Take `CCCCN(C)C(=O)c1cc2cc([N+](=O)[O-])cc(OC)c2oc1=O`: the “hERG current change (%, negative = inhibition) at 1uM” value is 9.55%.
In the case of `COc1ccc(CCC(=O)OCC(=O)N2CCN(S(=O)(=O)c3ccc(C)cc3C)CC2)cc1` it was 6.89%; in that of `COC(=O)c1ccccc1NCCO`, 15.5%.
In the case of `O=C(C1=C(O)C(=O)N(CCOCCO)C1c1cccc([N+](=O)[O-])c1)c1cccs1` (centres unmarked) it was 16.3%.
In the case of `CCOC(=O)c1cc(C)sc1/N=C/C1C(=O)NC(=S)NC1=O` it was 14%.
In the case of `COc1ccc(N(C2=NCCCS2)S(=O)(=O)c2ccc(C(C)(C)C)cc2)cc1`, the “hERG current change (%, negative = inhibition) at 1uM” value is reported as 3.59%.
In the case of `S=C(NCCc1ccccc1)N1CCc2ccccc2C1` it was 5.21%.
In the case of `CS(=O)(=O)N1CCCC(C(=O)NCCCN2CCN(Cc3ccccc3)CC2)C1` (centres unmarked) it was -8.14%.
Turning to `Cc1nnc(N2CCOCC2)c2nn(-c3cccc(Cl)c3)c(C)c12`, the “hERG current change (%, negative = inhibition) at 1uM” value turned out to be 2.64%.
